The other results are listed elsewhere or left out. Cleavage of a single-stranded DNA pool by Rep nickase domains was read by sequencing for 1 h at 37 °C with 3 µM enzyme; only the middle of the 90-letter strands is printed. Numbers give uncut DNA relative to the enzyme-free pool, as log2; uncut sequences lie near 0, cut ones below; no hit call is given. Because reads are shares of a total, they shift together, so uncut sequences can rise above 0 when many others are cut.
tested on: T1, Rep nickase domain of tomato golden mosaic virus; test: uncleaved DNA left, log2 of reads against the no-enzyme library (log2 ratio); higher = less cleavage (more negative = more Rep cleavage of the k-mer); sequences stand for … in CTCGTCCG…ACCGGAGA
T1 sequence (residues 1-124 of Rep, tag left off): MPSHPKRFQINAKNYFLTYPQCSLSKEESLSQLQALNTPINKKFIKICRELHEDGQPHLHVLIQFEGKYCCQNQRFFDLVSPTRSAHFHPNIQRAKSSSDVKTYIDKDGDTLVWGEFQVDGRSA
Method: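 A pool of 90-nt single-stranded DNAs with seven random bases just before the constant AC of the nick site (name = the seven bases) was cut by 3 µM recombinant His6-SUMO-tagged Rep nickase domain (300 nM DNA, 50 mM HEPES pH 8.0, 50 mM NaCl, 1 mM MnCl2, 1 h, 37 °C, three replicates). Uncut DNA was amplified and sequenced.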

Row | Sequence | uncleaved DNA left (log2)
1 | AGCCCTT | -0.00893
2 | CGAAATC | -0.211
3 | TGCCAGA | -0.134
4 | TGAGAAT | -0.00123
5 | AAAAGTC | 0.0236
6 | CTTTTCG | -0.144
7 | GAACAGA | 0.109
8 | AGTGCCC | 0.0482
9 | TCGGGTC | -0.0657
10 | ACCCTAT | 0.0252
11 | ATTTTAC | 0.00176
12 | TGTGTTA | -0.0796
13 | GCGTTAA | -0.0313
14 | AGACCCA | 0.0928
15 | ATCAGCG | -0.0835
16 | CCCCCAC | -0.209
17 | GGCCTCG | 0.0395
18 | CGAAGAT | 0.0336
19 | ATAATTG | 0.0576
20 | GGGCCGC | 0.0147

Row | Sequence | uncleaved DNA left (log2)
21 | ACCCCGT | -0.00187
22 | CAATTGA | -0.0356
23 | GACCGGG | 0.125
24 | GCGGTGA | -0.0921
25 | GACGAGC | 0.315
26 | AACCTGG | 0.0923
27 | ATATTTT | -0.592
28 | AGACAGA | 0.034
29 | ACCTCGT | -0.0183
30 | GTGCCGC | 0.0721
31 | AGGATGA | -0.0591
32 | GCCCGGC | -0.0794
33 | GAAGTCG | 0.0596
34 | ACCACTG | -0.039
35 | AGACAAG | 0.0667
36 | ACAACCA | -0.0202
37 | GAGGTAG | 0.185
38 | ATGGGGG | 0.005
39 | CTATGGA | 0.237
40 | TCAAAGA | -0.0179

Reference: the supplement of paper PMC7826260
